Data on ten variants can be found in the supplement of paper PMC12217912.

To fix the notation:
B1: TEV protease; numbered along this chain (parent)
chain: MGESLFKGPRDYNPISSSICHLTNESDGHTTSLYGIGFGPFIITNKHLFRRNNGTLVVQSLHGVFKVKDTTTLQQHLVDGRDMIIIRMPKDFPPFPQKLKFREPQREERICLVTTNFQTKSMSSMVSDTSCTFPSGDGIFWKHWIQTKDGQCGSPLVSTRDGFIVGIHSASNFTNTNNYFTSVPKNFMELLTNQEAQQWVSGWRLNADSVLWGGHKVFMVKPEEPFQPVKEATQL

The list shows a part of the results. The full chains were built here from the parent and the listed change. Inactive controls read about 0.05.

In the experiment the parent is B1. Description: raw area under fraction-flipped curve 0-4 h after induction (AUC4h, not background-subtracted), DNA-recorder readout of cleavage of the substrate (dimensionless); higher = more cleavage of the substrate by the protease variant. To be noted: temperature: 34 °C; time window: 0-4 h after rhamnose induction. The method, then:
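In vivo DNA recorder in E. coli TOP10(DE3) ΔrhaA at 34 °C. Each TEVp single-site mutant (parent TEVp 0) is paired with a single-site variant of the 7-mer TEVs (canonical ENLYFQ|S). The substrate sits between flexible linkers in a Bxb1-sfGFP-TEVs-SsrA fusion, so cleavage stabilises Bxb1 and speeds flipping of a recombination array, read by NGS. The value is the raw area under the fraction-flipped curve over 0-4 h after rhamnose induction (AUC4h), with ≥20 reads per time point. It is not background-subtracted; inactive controls average about 0.047.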
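Further: Bxb1 expression induced with 0.2% (w/v) L-rhamnose at OD600 near 0.5, cultures sampled hourly, flipped fraction per protease–substrate barcode pair counted by paired-end Illumina sequencing.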

For MGESLFKGPRDYNPISSSICHLTNESDGHTTSLYGIGFGPFIITNKHLFRRNNGTLVVQSLHGVFKVKDTTTLQQHLVDGRDMIIIRMPKDFPPFPQKLKFREPQREERICLVTTNFQNKSMSSMVSDTSCTFPSGDGIFWKHWIQTKDGQCGSPLVSTRDGFIVGIHSASNFTNTNNYFTSVPKNFMELLTNQEAQQWVSGWRLNADSVLWGGHKVFMVKPEEPFQPVKEATQL [T119N], the “area with substrate ENLYAQS” value was 0.0657, the “area with substrate ENLYDQS” value amounted to 0.0799, the “area with substrate ENLYEQS” value was 0.0488 and the “area with substrate ENLYGQS” value is 0.0707. In addition, the “area with substrate ENLYHQS” value was found to be 0.0656, the “area with substrate ENLYLQS” value is 0.118, the “area with substrate ENLYNQS” value came to 0.115 and the “area with substrate ENLYVQS” value amounted to 0.0986. Also, the “area with substrate ENLYYQS” value came out at 0.0695.
For MGESLFKGPRDYNPISSSICHLTNESDGHTTSLYGIGFGPFIITNKHLFRRNNGTLVVQSLHGVFKVKDTTTLQQHLVDGRDMIIIRMPKDFPPFPQKLKFREPQREERICLVTTNFQKKSMSSMVSDTSCTFPSGDGIFWKHWIQTKDGQCGSPLVSTRDGFIVGIHSASNFTNTNNYFTSVPKNFMELLTNQEAQQWVSGWRLNADSVLWGGHKVFMVKPEEPFQPVKEATQL [T119K], the “area with substrate ENLYAQS” value is 0.0732, the “area with substrate ENLYCQS” value worked out at 0.0851, the “area with substrate ENLYDQS” value was 0.0767 and the “area with substrate ENLYGQS” value was 0.0569. Moreover, the “area with substrate ENLYHQS” value was 0.0614, the “area with substrate ENLYKQS” value worked out at 0.0517, the “area with substrate ENLYMQS” value amounted to 0.0968 and the “area with substrate ENLYNQS” value amounted to 0.0574. Moreover, the “area with substrate ENLYQQS” value came out at 0.0644 and the “area with substrate ENLYSQS” value was determined as 0.0663.
Turning to MGESLFKGPRDYNPISSSICHLTNESDGHTTSLYGIGFGPFIITNKHLFRRNNGTLVVQSLHGVFKVKDTTTLQQHLVDGRDMIIIRMPKDFPPFPQKLKFREPQREERICLVTHNFQTKSMSSMVSDTSCTFPSGDGIFWKHWIQTKDGQCGSPLVSTRDGFIVGIHSASNFTNTNNYFTSVPKNFMELLTNQEAQQWVSGWRLNADSVLWGGHKVFMVKPEEPFQPVKEATQL [T115H], the “area with substrate ENLYAQS” value came out at 0.0893, the “area with substrate ENLYCQS” value was found to be 0.0714, the “area with substrate ENLYEQS” value was found to be 0.0665 and the “area with substrate ENLYHQS” value came out at 0.0613. In addition, the “area with substrate ENLYIQS” value came out at 0.121, the “area with substrate ENLYKQS” value was determined as 0.0623, the “area with substrate ENLYLQS” value turned out to be 0.0984 and the “area with substrate ENLYMQS” value came to 0.0711. In addition, the “area with substrate ENLYNQS” value is 0.0634, the “area with substrate ENLYQQS” value came to 0.0673, the “area with substrate ENLYSQS” value stood at 0.0732 and the “area with substrate ENLYVQS” value amounted to 0.177. In addition, the “area with substrate ENLYWQS” value stood at 0.079.
As to MGESLFKGPRDYNPISSSICHLTNESDGHTTSLYGIGFGPFIITNKHLFRRNNGTLVVQSLHGVFKVKDTTTLQQHLVDGRDMIIIRMPKDFPPFPQKLKFREPQREERICLVTINFQTKSMSSMVSDTSCTFPSGDGIFWKHWIQTKDGQCGSPLVSTRDGFIVGIHSASNFTNTNNYFTSVPKNFMELLTNQEAQQWVSGWRLNADSVLWGGHKVFMVKPEEPFQPVKEATQL [T115I], the “area with substrate ENLYAQS” value turned out to be 0.0714, the “area with substrate ENLYCQS” value stood at 0.062, the “area with substrate ENLYDQS” value came to 0.0511 and the “area with substrate ENLYEQS” value was determined as 0.0772. Besides, the “area with substrate ENLYGQS” value is 0.077, the “area with substrate ENLYIQS” value was determined as 0.118, the “area with substrate ENLYMQS” value was 0.078 and the “area with substrate ENLYNQS” value came out at 0.0882. In addition, the “area with substrate ENLYPQS” value came out at 0.0622, the “area with substrate ENLYQQS” value is 0.0597, the “area with substrate ENLYRQS” value amounted to 0.0684 and the “area with substrate ENLYSQS” value was 0.076. The “area with substrate ENLYVQS” value was 0.15.
As to MGESLFKGPRDYNPISSSICHLTNESDGHTTSLYGIGFGPFIITNKHLFRRNNGTLVVQSLHGVFKVKDTTTLQQHLVDGRDMIIIRMPKDFPPFPQKLKFREPQREERICLVTTNFQTKSMSSMVSDTTCTFPSGDGIFWKHWIQTKDGQCGSPLVSTRDGFIVGIHSASNFTNTNNYFTSVPKNFMELLTNQEAQQWVSGWRLNADSVLWGGHKVFMVKPEEPFQPVKEATQL [S130T], the “area with substrate ENLYAQS” value was determined as 0.0738, the “area with substrate ENLYEQS” value was 0.0686, the “area with substrate ENLYKQS” value was determined as 0.0404 and the “area with substrate ENLYQQS” value was 0.0654. For the same variant, the “area with substrate ENLYRQS” value was determined as 0.0653.
As to MGESLFKGPRDYNPISSSICHLTNESDGHTTSLYGIGFGPFIITNKHLFRRNNGTLVVQSLHGVFKVKDTTTLQQHLVDGRDMIIIRMPKDFPPFPQKLKFREPQREERICLVTTNFQTKSMSSMVSDTFCTFPSGDGIFWKHWIQTKDGQCGSPLVSTRDGFIVGIHSASNFTNTNNYFTSVPKNFMELLTNQEAQQWVSGWRLNADSVLWGGHKVFMVKPEEPFQPVKEATQL [S130F], the “area with substrate ENLYAQS” value came out at 0.0656, the “area with substrate ENLYEQS” value is 0.049, the “area with substrate ENLYGQS” value worked out at 0.0658 and the “area with substrate ENLYHQS” value is 0.065. Further, the “area with substrate ENLYIQS” value was 0.108, the “area with substrate ENLYKQS” value stood at 0.0691, the “area with substrate ENLYMQS” value is 0.0699 and the “area with substrate ENLYQQS” value was 0.0704. The “area with substrate ENLYRQS” value came out at 0.0595, the “area with substrate ENLYSQS” value turned out to be 0.0599 and the “area with substrate ENLYWQS” value was found to be 0.0647.
For MGESLFKGPRDYNPISSSICHLTNESDGHTTSLYGIGFGPFIITNKHLFRRNNGTLVVQSLHGVFKVKDTTTLQQHLVDGRDMIIIRMPKDFPPFPQKLKFREPQREERICLVTTNFQTKSMSSMVSDTACTFPSGDGIFWKHWIQTKDGQCGSPLVSTRDGFIVGIHSASNFTNTNNYFTSVPKNFMELLTNQEAQQWVSGWRLNADSVLWGGHKVFMVKPEEPFQPVKEATQL [S130A], the “area with substrate ENLYAQS” value stood at 0.0787, the “area with substrate ENLYDQS” value came to 0.0751, the “area with substrate ENLYEQS” value is 0.0687 and the “area with substrate ENLYGQS” value is 0.02. In addition, the “area with substrate ENLYHQS” value was determined as 0.0664, the “area with substrate ENLYIQS” value worked out at 0.121, the “area with substrate ENLYMQS” value was determined as 0.0454 and the “area with substrate ENLYNQS” value was found to be 0.0641. Moreover, the “area with substrate ENLYQQS” value was 0.0595, the “area with substrate ENLYSQS” value came to 0.073, the “area with substrate ENLYVQS” value was 0.132 and the “area with substrate ENLYWQS” value turned out to be 0.0619.
As to MGESLFKGPRDYNPISSSICHLTNESDGHTTSLYGIGFGPFIITNKHLFRRNNGTLVVQSLHGVFKVKDTTTLQQHLVDGRDMIIIRMPKDFPPFPQKLKFREPQREERICLVTTNFQTKSMSSMKSDTSCTFPSGDGIFWKHWIQTKDGQCGSPLVSTRDGFIVGIHSASNFTNTNNYFTSVPKNFMELLTNQEAQQWVSGWRLNADSVLWGGHKVFMVKPEEPFQPVKEATQL [V126K], the “area with substrate ENLYAQS” value was found to be 0.0723, the “area with substrate ENLYCQS” value was determined as 0.103, the “area with substrate ENLYDQS” value is 0.0612 and the “area with substrate ENLYEQS” value was determined as 0.0588. The “area with substrate ENLYGQS” value was found to be 0.0668, the “area with substrate ENLYHQS” value stood at 0.0701, the “area with substrate ENLYIQS” value came out at 0.15 and the “area with substrate ENLYKQS” value stood at 0.0823. Also, the “area with substrate ENLYLQS” value amounted to 0.0932, the “area with substrate ENLYMQS” value came to 0.0821, the “area with substrate ENLYNQS” value was found to be 0.0711 and the “area with substrate ENLYPQS” value came to 0.0788. In addition, the “area with substrate ENLYSQS” value turned out to be 0.0656, the “area with substrate ENLYTQS” value was determined as 0.107 and the “area with substrate ENLYWQS” value stood at 0.0736.
MGESLFKGPRDYNPISSSICHLTNESDGHTTSLYGIGFGPFIITNKHLFRRNNGTLVVQSLHGVFKVKDTTTLQQHLVDGRDMIIIRMPKDFPPFPQKLKFREPQREWRICLVTTNFQTKSMSSMVSDTSCTFPSGDGIFWKHWIQTKDGQCGSPLVSTRDGFIVGIHSASNFTNTNNYFTSVPKNFMELLTNQEAQQWVSGWRLNADSVLWGGHKVFMVKPEEPFQPVKEATQL [E108W]: the “area with substrate ENLYAQS” value was determined as 0.0514, the “area with substrate ENLYDQS” value came to 0.0574, the “area with substrate ENLYEQS” value turned out to be 0.0493 and the “area with substrate ENLYGQS” value stood at 0.0516. Besides, the “area with substrate ENLYHQS” value came out at 0.05, the “area with substrate ENLYIQS” value was found to be 0.0645, the “area with substrate ENLYKQS” value was determined as 0.0549 and the “area with substrate ENLYMQS” value amounted to 0.0482. For the same variant, the “area with substrate ENLYNQS” value amounted to 0.0614, the “area with substrate ENLYPQS” value came out at 0.0612, the “area with substrate ENLYQQS” value turned out to be 0.0614 and the “area with substrate ENLYRQS” value was found to be 0.0465. Moreover, the “area with substrate ENLYTQS” value amounted to 0.0511, the “area with substrate ENLYVQS” value is 0.0635, the “area with substrate ENLYWQS” value was found to be 0.0446 and the “area with substrate ENLYYQS” value turned out to be 0.063.
As to MGESLFKGPRDYNPISSSICHLTNESDGHTTSLYGIGFGPFIITNKHLFRRNNGTLVVQSLHGVFKVKDTTTLQQHLVDGRDMIIIRMPKDFPPFPQKLKFREPQRERRICLVTTNFQTKSMSSMVSDTSCTFPSGDGIFWKHWIQTKDGQCGSPLVSTRDGFIVGIHSASNFTNTNNYFTSVPKNFMELLTNQEAQQWVSGWRLNADSVLWGGHKVFMVKPEEPFQPVKEATQL [E108R], the “area with substrate ENLYAQS” value came to 0.0469, the “area with substrate ENLYDQS” value was determined as 0.0603, the “area with substrate ENLYEQS” value came out at 0.0399 and the “area with substrate ENLYGQS” value was found to be 0.0514. In addition, the “area with substrate ENLYHQS” value turned out to be 0.0614, the “area with substrate ENLYKQS” value came out at 0.0571, the “area with substrate ENLYMQS” value came out at 0.0613 and the “area with substrate ENLYPQS” value amounted to 0.0634. Also, the “area with substrate ENLYQQS” value is 0.0776, the “area with substrate ENLYSQS” value was 0.0797, the “area with substrate ENLYVQS” value was found to be 0.0633 and the “area with substrate ENLYWQS” value came out at 0.0555.
